{"source": "PubChem BioAssay AID1347073", "about": "(National Center for Advancing Translational Sciences (NCATS), 2019)", "note": "The campaign covered roughly 45,000 compounds. About 200 (0.44%) were called active. Inconclusive results (about 7%) are left out. Calls come from the whole dose curve; as a rule, active = well fitted activation curve with a large enough effect; inconclusive = small, poorly fitted or top-dose-only effect; inactive = no such curve, though single readings can be large or run the other way. This is one part of the list.", "data": [{"experiment": "qHTS of TDP-43 Inhibitors: NCGC Sytravon Library Screen; note: 0% is about no effect; nearly all actives have a fitted effect of over 55% in size", "details": "yeast TDP-43 toxicity rescue, BacTiter-Glo growth, 24 h; series mostly up to 46.1 µM; growth rescue (activation): at the top concentration", "summary_of_the_method": "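TDP-43-expressing yeast, pregrown in raffinose, seeded at OD600 0.02 in galactose medium with compound for 24 hr at 30 deg C. Growth read by BacTiter-Glo luminescence, so rescue of toxicity appears as activation.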", "values": [{"smiles": "COc1cc2c(cc1OC)C1(CCCCC1)CN(C)C2", "growth rescue (activation)": "inactive: -1.62%"}, {"smiles": "COc1cc(OC)cc(C(=O)OCC(=O)Nc2cccc(S(=O)(=O)NC3=NCCCCC3)c2)c1", "growth rescue (activation)": "inactive: 17.1%"}, {"smiles": "COc1ccc(C(=O)NCCSCc2ccccc2)cc1OC", "growth rescue (activation)": "inactive: 27.4%"}, {"smiles": "CCCC(=O)N1CCC1(C)C(=O)Nc1ccc2nccnc2c1", "note": "(configuration not stated)", "growth rescue (activation)": "inactive: 10.2%"}, {"smiles": "COc1cccc(NC(=O)Cn2c(=O)n(CC(=O)NCc3ccc(C)cc3)c(=O)c3sccc32)c1", "growth rescue (activation)": "inactive: -3.59%"}, {"smiles": "O=C(NCc1ccc(Cl)nc1)c1ccc2sc([C@@H]3O[C@H](CO)[C@H](O)[C@H](O)[C@H]3O)nc2c1", "growth rescue (activation)": "inactive: 9.19%"}, {"smiles": "COc1ccc(NC(=O)C(c2ccccc2)c2ccccc2)cn1", "growth rescue (activation)": "inactive: 22.8%"}, {"smiles": "O=C(COC(=O)c1ccc2c(c1)C(=O)N(CCc1ccccc1)C2=O)Nc1ccc(OC(F)F)cc1", "growth rescue (activation)": "inactive: -5.48%"}, {"smiles": "Cc1cccc(Cn2cc3c(=O)n(Cc4cccc(F)c4)nc-3c3ccccc32)c1", "growth rescue (activation)": "inactive: 8.05%"}, {"smiles": "COc1cc(-c2cc3nc4ccccc4n3c(N)c2C#N)cc(OC)c1OC", "growth rescue (activation)": "inactive: -13.8%"}, {"smiles": "Cc1ccc(/C=C/C(=O)Nc2ccc(S(N)(=O)=O)cc2)o1", "growth rescue (activation)": "inactive: 0.286%"}, {"smiles": "O=C(Nc1ccnn1C1CCN(C/C=C/c2ccccc2)CC1)c1ccccc1Cl", "growth rescue (activation)": "inactive: 6.07%"}, {"smiles": "COc1ccc(Cc2[nH]n3c(=O)cc(C(C)C)nc3c2-c2ccccc2)cc1", "growth rescue (activation)": "inactive: -3.67%"}, {"smiles": "O=C(Nc1ncc([N+](=O)[O-])s1)C1CC(=O)N(c2ccc(F)cc2)C1", "note": "(configuration not stated)", "growth rescue (activation)": "inactive: 1.7%"}, {"smiles": "CSCCC1NC(=O)N(CC(=O)Nc2ccc(Cl)c(S(=O)(=O)N3CCOCC3)c2)C1=O", "note": "(configuration not stated)", "growth rescue (activation)": "inactive: -21.3%"}, {"smiles": "Cc1cc(C)c(Cn2c3ccccc3c3cnn(CC(=O)NCc4ccccn4)c(=O)c32)c(C)c1", "growth rescue (activation)": "inactive: -1.83%"}, {"smiles": "CC(=O)c1ccc(N=C2C(=O)Nc3ccccc32)cc1", "growth rescue (activation)": "inactive: 1.46%"}, {"smiles": "O=[N+]([O-])c1cccc(C(=Nc2ccccc2)NO)c1", "growth rescue (activation)": "inactive: 23.4%"}, {"smiles": "O=C(Cc1ccccc1)NN1C(=O)C2C3C=CC(C3)[C@@H]2C1=O", "note": "(some centres not stated)", "growth rescue (activation)": "inactive: 9.47%"}, {"smiles": "COc1ccc(NC(=O)CS(=O)CC(=O)Nc2cccc3cccnc23)cc1", "note": "(configuration not stated)", "growth rescue (activation)": "inactive: 10.6%"}, {"smiles": "COc1ccccc1CC1S/C(=N/N=C/c2ccco2)NC1=O", "note": "(configuration not stated)", "growth rescue (activation)": "inactive: 0.935%"}, {"smiles": "COc1ccc(CNC(=O)c2sc3nc4c(c(C(F)(F)F)c3c2N)CCC4)cc1OC", "growth rescue (activation)": "inactive: 8.29%"}, {"smiles": "CN(C)C(=O)CSc1nc(-c2cccs2)c(-c2cccs2)[nH]1", "growth rescue (activation)": "inactive: 4.06%"}, {"smiles": "Cc1ccc(CNC(=O)COC(=O)c2cc3c(s2)CCC(C)C3)cc1", "note": "(configuration not stated)", "growth rescue (activation)": "inactive: -1.98%"}, {"smiles": "O=C(CSc1nnc(CN2CCCC2)n1-c1ccccc1)c1ccc2c(c1)OCO2", "growth rescue (activation)": "inactive: 16.1%"}, {"smiles": "CC(C)N1CCC(N2CCN(Cc3ccc4nonc4c3)CC2CCO)CC1", "note": "(configuration not stated)", "growth rescue (activation)": "inactive: 26.1%"}, {"smiles": "CCN(CC)S(=O)(=O)c1ccc(NS(=O)(=O)c2ccc(OC)c([N+](=O)[O-])c2)cc1", "growth rescue (activation)": "inactive: -14%"}, {"smiles": "CC(C)COc1ccc(C/C(N)=N/n2cnnc2)cc1", "growth rescue (activation)": "inactive: 12.6%"}, {"smiles": "Cc1nn(CC(=O)c2ccc3c(c2)OCCO3)c(=O)c(C#N)c1C", "growth rescue (activation)": "inactive: 8.66%"}, {"smiles": "Cc1c(NC(=O)c2c(O)c3ccccc3n(C)c2=O)c(=O)n(-c2ccccc2)n1C", "growth rescue (activation)": "inactive: -5.51%"}, {"smiles": "COCCNC(=O)C(C(=O)c1ccc(F)cc1)n1cc(C)ccc1=O", "note": "(configuration not stated)", "growth rescue (activation)": "inactive: 4.37%"}, {"smiles": "CC(=O)Nc1ccc(C(=O)N/C(=C\\c2ccccc2)C(=O)Nc2cccc(C(=O)O)c2)cc1", "growth rescue (activation)": "inactive: 9.34%"}, {"smiles": "CN(c1ccccc1)S(=O)(=O)c1cccc(NC(=O)CSc2ncn[nH]2)c1", "growth rescue (activation)": "inactive: -9.09%"}, {"smiles": "O=C(NCc1ccccn1)NC1CCCCC1", "growth rescue (activation)": "inactive: 15%"}, {"smiles": "O=C(Nc1ccc2c(c1)OCO2)C1CC(=O)N(c2ccccc2)C1", "note": "(configuration not stated)", "growth rescue (activation)": "inactive: -5.44%"}, {"smiles": "O=[N+]([O-])c1cnn(-c2nc(-c3ccco3)cc(C(F)(F)F)n2)c1", "growth rescue (activation)": "inactive: -3.17%"}, {"smiles": "O=C(O)c1cccc(N2C(=O)c3cccc4c(Cl)ccc(c34)C2=O)c1", "growth rescue (activation)": "inactive: -3.25%"}, {"smiles": "Cc1nn(C)cc1C(C(=O)NC1CCCCC1)N(C(=O)Cc1cccs1)c1ccc(Cl)cc1", "note": "(configuration not stated)", "growth rescue (activation)": "inactive: -11.7%"}, {"smiles": "CCOc1ccc(N2CC(C(=O)Nc3ccc(F)cc3F)CC2=O)cc1", "note": "(configuration not stated)", "growth rescue (activation)": "inactive: 15.3%"}, {"smiles": "COc1cc(OC)c(N(C)S(=O)(=O)c2cccc(C(=O)OCC(=O)N3CCOCC3)c2)cc1Cl", "growth rescue (activation)": "inactive: 24.5%"}, {"smiles": "Cc1cc(C(=O)COC(=O)c2ccc3c(c2)NC(=O)CS3)c(C)n1CCc1ccc(Cl)cc1", "growth rescue (activation)": "inactive: 4.71%"}, {"smiles": "COc1ccccc1OCC(=O)NCC1CCCN(C(=O)c2ccccc2C(C)=O)C1", "note": "(configuration not stated)", "growth rescue (activation)": "inactive: 3.06%"}, {"smiles": "CCNC(=O)COc1ccc(/C=N/NC(=O)c2cccnc2)cc1OC", "growth rescue (activation)": "inactive: 1.35%"}, {"smiles": "Cc1ccc(S(=O)(=O)NC(=O)NCCc2ccccc2)cc1", "growth rescue (activation)": "inactive: 20.9%"}, {"smiles": "CSc1snnc1-c1ccccc1", "growth rescue (activation)": "inactive: 10.5%"}, {"smiles": "CC1=CC(C)(C)[N+](C)(C)c2ccc(C)cc21", "growth rescue (activation)": "inactive: -7.04%"}, {"smiles": "CC(C)(C)c1ccc(CC(=O)N2CCC2(C)C(=O)NS(=O)(=O)c2cccc(F)c2)cc1", "note": "(configuration not stated)", "growth rescue (activation)": "inactive: 9.99%"}, {"smiles": "COc1cccc(CC2(CO)CCN(Cc3cn(C)nc3C)CC2)c1", "growth rescue (activation)": "inactive: 7.23%"}, {"smiles": "C=C(C)/C=N/NC(=S)Nc1ccc(S(=O)(=O)N2CCOCC2)cc1", "growth rescue (activation)": "inactive: 7.15%"}, {"smiles": "CCOC(=O)C1CCCN(S(=O)(=O)c2ccc(-n3cnnn3)c(C)c2)C1", "note": "(configuration not stated)", "growth rescue (activation)": "inactive: 0.582%"}, {"smiles": "Cc1cccc(C(=O)Nc2ccc(C(=O)N/N=C/c3cccnc3)cc2)c1", "growth rescue (activation)": "inactive: 5.84%"}, {"smiles": "COc1ccc(N2CCN(S(=O)(=O)c3ccc(-n4cnnn4)c(C)c3)CC2)cc1", "growth rescue (activation)": "inactive: 3.5%"}]}]}
